Measurements: the supplement of paper PMC12217912
The other results are listed elsewhere or left out. The full chains were built here from the parent and the listed change. Inactive controls read about 0.05.

B1: TEV protease; numbered along this chain (parent)
chain: MGESLFKGPRDYNPISSSICHLTNESDGHTTSLYGIGFGPFIITNKHLFRRNNGTLVVQSLHGVFKVKDTTTLQQHLVDGRDMIIIRMPKDFPPFPQKLKFREPQREERICLVTTNFQTKSMSSMVSDTSCTFPSGDGIFWKHWIQTKDGQCGSPLVSTRDGFIVGIHSASNFTNTNNYFTSVPKNFMELLTNQEAQQWVSGWRLNADSVLWGGHKVFMVKPEEPFQPVKEATQL

Variants of: B1
Experiment: raw area under fraction-flipped curve 0-4 h after induction (AUC4h, not background-subtracted), DNA-recorder readout of cleavage of the substrate (dimensionless); higher = more cleavage of the substrate by the protease variant
Conditions: temperature: 34 °C; time window: 0-4 h after rhamnose induction
Procedure: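 In vivo DNA recorder in E. coli TOP10(DE3) ΔrhaA at 34 °C. Each TEVp single-site mutant (parent TEVp 0) is paired with a single-site variant of the 7-mer TEVs (canonical ENLYFQ|S). The substrate sits between flexible linkers in a Bxb1-sfGFP-TEVs-SsrA fusion, so cleavage stabilises Bxb1 and speeds flipping of a recombination array, read by NGS. The value is the raw area under the fraction-flipped curve over 0-4 h after rhamnose induction (AUC4h), with ≥20 reads per time point. It is not background-subtracted; inactive controls average about 0.047.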
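Note: Bxb1 expression induced with 0.2% (w/v) L-rhamnose at OD600 near 0.5, cultures sampled hourly, flipped fraction per protease–substrate barcode pair counted by paired-end Illumina sequencing.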

Variant	area with substrate ENLAFQS	area with substrate ENLCFQS	area with substrate ENLDFQS	area with substrate ENLEFQS	area with substrate ENLFFQS	area with substrate ENLGFQS	area with substrate ENLHFQS	area with substrate ENLKFQS	area with substrate ENLMFQS	area with substrate ENLQFQS	area with substrate ENLSFQS	area with substrate ENLVFQS	area with substrate ENLLFQS	area with substrate ENLNFQS	area with substrate ENLPFQS	area with substrate ENLRFQS	area with substrate ENLIFQS	area with substrate ENLWFQS	area with substrate ENLTFQS
C152P	0.0695	0.0665	0.0548	0.0674	0.0644	0.048	0.0562	0.0604	0.0563	0.0487	0.0571	0.0555							
I110D	0.0405	0.0629	0.0514	0.0517	0.0651	0.0456	0.048	0.0605		0.0541	0.0604	0.0518	0.0497	0.0554	0.0443	0.0516			
I110T	0.0636	0.0724	0.0513	0.0535	0.062	0.0611	0.0612	0.0692	0.0698	0.0536	0.0501	0.0752		0.0558	0.0661	0.0689	0.064	0.0694	
G150H	0.0655	0.0578	0.0634	0.066	0.0617	0.0611	0.0612	0.068	0.0743	0.0648	0.0518	0.0431	0.0695	0.0575	0.0707	0.0707	0.059		
G150V	0.0588	0.0644	0.0637	0.058	0.0551	0.0685	0.0649	0.0678		0.0587	0.057	0.0672	0.0483	0.0649	0.0587	0.0613		0.0633	0.0549
S135R	0.0759	0.0618	0.0601	0.0734	0.0783		0.0531	0.0662	0.0647	0.065	0.0555	0.0721	0.0587	0.0568	0.0706	0.0356	0.0596	0.0571	
K148E	0.0833	0.0753	0.0684	0.0601	0.0675	0.078	0.0777	0.0658		0.071	0.0683	0.084	0.0725	0.0616	0.0381	0.0707	0.0828	0.0647	
S123D	0.0497	0.0732	0.0678	0.0624	0.0823	0.0718	0.0701	0.0748	0.0693		0.0703		0.0636	0.0629	0.0443	0.0659	0.086	0.0725	
S123I	0.0531	0.0885	0.0631	0.0751	0.0951		0.065	0.0759	0.0738	0.0741	0.0459	0.0807	0.0675	0.0675	0.0612	0.0673		0.0511	
D149Y	0.0572	0.0463	0.0588	0.0582	0.0996		0.0658	0.0446	0.0637	0.0472		0.107		0.0512	0.0629		0.0462	0.0611	
T132A	0.0674		0.0551	0.0641	0.0943	0.0572	0.0635	0.077		0.0698	0.0647	0.0871	0.0827	0.0692	0.0615	0.0621	0.0674		0.0714
